# According to PMC6919601, “Identification of Plasmodium dipeptidyl aminopeptidase allosteric inhibitors by high throughput screening” (PLoS ONE, 2019):
# The whole screen tested about 110,000 compounds, of which about 230 (0.21%) showed an effect of 50% or more. The list shows a part of the results.
# Biological target: DPAP1 (Plasmodium falciparum, UniProt Q8IIJ9)
# Assay: primary screen, percent inhibition; read by cleavage of a fluorogenic dipeptide substrate; higher = more effect of the substance
# Design: species or system P. falciparum D10 trophozoite lysates; single well
# 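Note: 30 min substrate incubation versus DMSO and 10 µM JCP410 controls.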
# DPAP1, sequence (Q8IIJ9 whole entry, looked up): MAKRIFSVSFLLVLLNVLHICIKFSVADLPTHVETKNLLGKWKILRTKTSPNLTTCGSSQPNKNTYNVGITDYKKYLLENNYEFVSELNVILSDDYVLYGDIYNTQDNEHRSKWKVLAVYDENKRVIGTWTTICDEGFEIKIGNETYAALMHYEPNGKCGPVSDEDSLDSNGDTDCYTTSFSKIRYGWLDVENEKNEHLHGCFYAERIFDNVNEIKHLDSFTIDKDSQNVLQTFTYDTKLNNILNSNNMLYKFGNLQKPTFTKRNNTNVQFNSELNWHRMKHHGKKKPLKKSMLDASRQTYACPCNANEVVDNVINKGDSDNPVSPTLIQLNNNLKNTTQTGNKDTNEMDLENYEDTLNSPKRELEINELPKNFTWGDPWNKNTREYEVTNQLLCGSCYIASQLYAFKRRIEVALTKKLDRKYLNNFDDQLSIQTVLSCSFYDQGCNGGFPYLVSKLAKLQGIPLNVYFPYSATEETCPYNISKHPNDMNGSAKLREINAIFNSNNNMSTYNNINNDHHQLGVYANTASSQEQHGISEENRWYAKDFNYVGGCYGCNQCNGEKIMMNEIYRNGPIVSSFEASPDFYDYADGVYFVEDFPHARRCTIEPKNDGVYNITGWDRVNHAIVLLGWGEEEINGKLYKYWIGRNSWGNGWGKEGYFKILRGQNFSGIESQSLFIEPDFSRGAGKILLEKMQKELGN
row,SMILES,% Inhibition @ 10 uM [%]
1,O=C(CNS(=O)(=O)c1ccccc1)N1CCc2ccccc2C1,-0.795
2,Cc1nc2c3ccccc3n3c(CCCC(=O)N4CCN(Cc5ccccc5)CC4)nnc3n2n1,17.9
3,COc1ccccc1/C=C1/OC(=O)c2c1cc(C)nc2O,2.18
4,COc1ccc(S(=O)(=O)N2CCN(c3ccc(F)cc3)CC2)cc1,2.26
5,COC(=O)c1ccc(C2Oc3ccc(OC)cc3C3CC(c4ccc(OC)cc4)=NN32)cc1 (stereo not drawn),15.8
6,CC(=O)c1ccc(NC(=O)c2ccc(NC(=O)c3ccco3)cc2)cc1,-6.44
7,Cc1ccc(S(=O)(=O)N(CC(=O)NC(C)(C)C)Cc2cccc(C)c2)cc1,2.76
8,O=S1(=O)C(/C=N/C2CC2)=C(O)c2sccc2N1Cc1ccc(F)cc1,-1.43
9,Clc1cccc(N2CCN(C3CCC(c4ccccc4)CC3)CC2)c1 (stereo not drawn),-1.21
10,CCCN1CCC(NCc2ccccc2F)CC1,-4.14
11,CNC(=O)/C(C#N)=C/c1c(Oc2ccc(Br)cc2)nc2ccccn2c1=O,1.19
12,O=C(Nc1ccc(O)cc1)c1ccco1,-1.56
13,Cc1cccc(OCC(=O)N2CCC(C(N)=O)CC2)c1C,-10.2
14,O=C(c1cccs1)n1nnc2ccccc21,-0.178
15,COc1ccc(OC)c(C2C3=C(O)CCCC3=NC(C)=C2C(=O)Nc2c(F)cccc2F)c1 (stereo not drawn),-5.34
16,COc1ccc(OC)c([N+]2=C3CCCCCN3C(O)(c3ccc4c(c3)OCCO4)C2)c1 (stereo not drawn),5.08
17,CC1=C(C(=O)OCc2ccccc2)C(c2ccccc2F)C(C#N)=C(N)O1 (stereo not drawn),3.03
18,O=C(NCCc1ccccc1)C1CCC(CNS(=O)(=O)c2cccs2)CC1 (stereo not drawn),-2.56
19,COc1cc(S(=O)(=O)N2CCC(C)CC2)c(OC)cc1Cl,-1.2
20,O=C(Nc1sc2c(c1C(=O)NC1CCS(=O)(=O)C1)CCCC2)c1ccccc1Br (stereo not drawn),-0.132
21,COc1cc2c(cc1OC)CN(Cc1ccc(OC(F)(F)F)cc1)CC2,1.62
22,Oc1ccc(C(=S)N2CCCCC2)cc1,-3.27
23,C=C(N[C@@H](CCc1ccccc1)C(=O)CCS(=O)(=O)c1ccc2ccccc2c1)[C@H](CC(C)C)NC(=O)C1CCNCC1,0.744
24,CN(Cc1ccccc1)C(=O)CNC(=O)Cn1cnc2sc3c(c2c1=O)CCCC3,10.1

row,SMILES,% Inhibition @ 10 uM [%]
1,COc1ccc(CN(C(=O)c2cc(=O)c3ccccc3o2)C2CCS(=O)(=O)C2)cc1 (stereo not drawn),0.248
2,O=C(CCCn1sc2ccccc2c1=O)n1ccnc1,4.79
3,COc1cc(C2CC(=O)Nc3c2c(=O)n(C)c(=O)n3C)ccc1O (stereo not drawn),0.231
4,OC1CCCN(Cc2ccc(OC(F)(F)F)cc2)C1 (stereo not drawn),1.62
5,N#Cc1c(-c2ccccc2)ncnc1N1CCCCC1,-5.23
6,O=C(NC1CCCC1)c1ccccc1,-4.13
7,O=C1c2[nH]nc(-c3ccccc3O)c2C(c2ccc(Cl)cc2)N1CCO (stereo not drawn),-4.95
8,Oc1ccc(Nc2nc3nonc3nc2Nc2ccc(O)cc2)cc1,-4.26
9,c1ccc2[nH]c(CCn3c4c(c5ccccc53)CCCC4)nc2c1,6.66
10,Cc1ccc(CCNS(=O)(=O)c2c(C)nc3sccn3c2=O)cc1,4.95
11,CCCCC12CN3CC(C)(CN(C1)C3c1ccc(C(C)C)cc1)C2=O (stereo not drawn),-3.49
12,O=C(NCCN1CCc2ccccc2C1)c1cc2ccc3cccnc3c2[nH]1,4.44
13,O=C(NCCCn1ccnc1)c1cnn2c(C(F)(F)F)cc(-c3ccc(Br)cc3)nc12,1.4
14,CCOc1cccc(NC(=O)C2CC(=O)N(C)/C(=N/c3ccccc3OC)S2)c1 (stereo not drawn),-1.43
15,Cc1c(C2(c3c(C)n(C)n(-c4ccccc4)c3=O)C(=O)N(C)c3ccc([N+](=O)[O-])cc32)c(=O)n(-c2ccccc2)n1C,6.8
16,Cc1nn(CC(=O)NCCN2CCCC2)c(=O)c2cc3cc(F)ccc3n12,1.68
17,CC(C)C[C@H](NC(=O)OCc1ccccc1)C(=O)NC(C#N)CC(C)S(C)(=O)=O (stereo partly drawn),-1.41
18,Fc1ccc(CN2CCN(c3ccccc3)CC2)c(F)c1,-5.5
19,Cc1ccc(-c2cc(C(=O)O)c3cc4c(C(=O)O)cc(-c5ccc(C)o5)nc4cc3n2)o1,6.79
20,CCc1cccc(CC)c1NC(=O)CCCC(=O)O,0.658
21,Cc1n[nH]c(C)c1CCc1nc2c3ccccc3nc(SCc3ccc(C#N)cc3)n2n1,6.18
22,Cc1cccc(-c2nc(N3CCCCCC3)c3ccccc3n2)c1,2.38
23,CCn1c(SCc2ccccc2Cl)nc2c1c(=O)[nH]c(=O)n2C,-2.89
24,Cc1c(CN2CCC(C)CC2)c(=O)n(-c2ccccc2)n1C,-5.94

row,SMILES,% Inhibition @ 10 uM [%]
1,Cc1cccc(CS(=O)(=O)Cc2ccc(C(=O)NCc3ccccc3Cl)o2)c1,2.35
2,COc1cc(Br)cc2c1Oc1nc(-c3cc(OC)c(OC)c(OC)c3)nc(O)c1C2,0.655
3,COCCNC(=O)CCCc1cc(-c2ccc(OC)cc2)on1,0.44
4,CCc1ccccc1NC(=O)c1ccccc1[N+](=O)[O-],9.41
5,Cc1nc(/N=C(\N)Nc2ccc3c(c2)OCCO3)nc(O)c1C,0.0265
6,COc1ccc(CCNC(=O)c2sc3nc(-c4ccncc4)ccc3c2N)cc1OC,-2.91
7,CC1CCCCN1C(=O)Nc1cn(C)c(=O)c2ccccc12 (stereo not drawn),3.96
8,CCCn1c2ccc(C)cc2c2nnc(SCCN3CCOCC3)nc21,3.36
9,Clc1cccc(N2CCN(C/C=C/c3ccccc3)CC2)c1,2.1
10,Cc1ccc(S(=O)(=O)/N=C(\N)Nc2nc(C)c3cc(C)cc(C)c3n2)cc1,0.032
11,CCOC(=O)C1=C(CN(C)Cc2ccccc2)NC(=O)NC1c1ccc(Cl)cc1 (stereo not drawn),-1.03
12,CC1=C(C)CC(C(=O)N2CCN(C/C=C/c3ccccc3)CC2)C(C(=O)O)C1 (stereo not drawn),-5.26
13,COC(=O)C1=C(C)N(Cc2ccc(OC)cc2)C(=O)C1,-1.92
14,CCOC(=O)c1ccc(-n2cc3c(c2-c2ccc(OC)cc2)c(=O)n(C)c(=O)n3C)cc1,-0.386
15,COc1ccccc1OCC(=O)Nc1nc(-c2ccc(S(=O)(=O)N3CCOCC3)cc2)cs1,3.56
16,Cc1ccc(C2OC3(C(=O)c4ccccc4C3=O)C3C(=O)N(Cc4ccccc4)C(=O)C23)cc1 (stereo not drawn),1.61
17,CN(C)CCCNC1CCc2ccccc2C1 (stereo not drawn),-7.02
18,Nc1nc2c(s1)CCc1c-2no[n+]1[O-],-7.92
19,CCC(C(=O)NC(C)c1ccc2c(c1)OCCO2)n1ncn2c(cc3occc32)c1=O (stereo not drawn),3
20,CCC(COc1ccc(-c2ccc(OC)cc2)nn1)NC(=O)c1cnsc1 (stereo not drawn),-6.56
21,Cc1cc(S(=O)(=O)NCCC23CC4CC(CC(C4)C2)C3)ccc1Cl,0.0289
22,Cc1noc(C(=O)Nc2cccnc2Cl)c1Cl,-7.13
23,CC(CNC(=O)c1cc(-c2ccc(Br)cc2)[nH]n1)c1ccccc1 (stereo not drawn),2.79
24,Cc1ccc(N(CCO)S(=O)(=O)c2ccc(NC3=NS(=O)(=O)c4ccccc43)cc2)cc1,2.76

row,SMILES,% Inhibition @ 10 uM [%]
1,Cc1nc(SCC(=O)c2ccccc2)c(C#N)c(C)c1Cl,-0.25
2,CCc1ccc(-n2c(C)nnc2SCc2nc(-c3ccc(OC)c(OC)c3)no2)cc1,-0.45
3,CCN(c1ccccc1)S(=O)(=O)c1ccc(NC(=O)c2ccc(F)cc2)cc1,8.18
4,CN1C(=O)c2ccccc2C(C(=O)NCc2ccco2)C1c1c[nH]c2ccccc12 (stereo not drawn),-5.2
5,CN(Cc1cccc(Cl)c1)CC(O)c1ccccc1 (stereo not drawn),-3.5
6,CCCCC(=N)C1=C(O)CC(C)(C)CC1=O,2.08
7,O=S(=O)(Nc1ccccc1)c1ccc2c(c1)Cc1cc(S(=O)(=O)Nc3ccccc3)ccc1-2,0.913
8,COc1cc(C2CC(=O)NC(C)=C2C(=O)OCC2CCCCC2)c(OC)cc1Br (stereo not drawn),4.23
9,COC(=O)Nc1ccc2c(c1)N(C(=O)CCN1CCN3CCCC3C1)c1ccccc1S2 (stereo not drawn),-0.865
10,Cc1nc2c(-c3ccccc3)c(C)nn2c(C)c1CCC(=O)NCc1ccco1,-6.03
11,Cc1cc(C)c(C)c(S(=O)(=O)NCc2ccc(C(=O)N3CC(C)OC(C)C3)cc2)c1C (stereo not drawn),2.17
12,NC(=O)c1c(NC(=O)c2cccc(C(F)(F)F)c2)sc2c1CCCC2,1.03
13,CCn1c(C(=O)N2CCC(C(=O)NC(C)CCc3ccccc3)CC2)cc2sccc21 (stereo not drawn),3.4
14,CC(C)c1ccc(OCC(=O)Nc2ccc(S(=O)(=O)Nc3nccs3)cc2)cc1,-3.26
15,NC(=O)CSc1nc(-c2ccccc2)nc2c1Cc1c(ccc3ccccc13)O2,2.04
16,COCCn1c(C)cc(C(=O)CSc2ncnc3scc(-c4ccccc4)c23)c1C,-2.85
17,COc1cc(/C=C2/C(=O)ON=C2C)cc(Br)c1OCc1ccccc1F,-3.96
18,C[C@H](NC(=O)Cc1ccccc1)c1ccccc1,-1.59
19,O=C(NC1CCN(Cc2ccccc2)CC1)c1ccc(CS(=O)c2ccccc2Cl)o1 (stereo not drawn),-0.716
20,O=C1CC(SCc2ccccc2)C(=O)N1c1ccc(Br)cc1 (stereo not drawn),-1.98
21,CC1CCCCN1C(=O)C(Cc1ccccc1)N1C(=O)C2CCCCC2C1=O (stereo not drawn),3.54
22,CC(/C=C(\O)c1ccccc1)=N\c1ccc(C(=O)Nc2cccc3ccccc23)cc1,0.937
23,CC1=C(C(=O)Nc2ccccc2)C(c2ccc(Cl)cc2)NC(S)=N1 (stereo not drawn),-1.66
24,Nc1nonc1C(=O)NCCNCc1ccsc1,4.83
